Measured values as given in PubChem BioAssay AID360 (National Center for Advancing Translational Sciences (NCATS), 2006).
About 550 (1.1%) of roughly 48,000 compounds were called active. Inconclusive results (about 4%) are left out. Cut-off read from the data, not from the text of the source: active = potency below about 15 µM; inconclusive = mostly about 16 µM to 33 µM; inactive = weaker than that. The list shows a part of the results.

Target: Lysosomal acid glucosylceramidase (Homo sapiens) (UniProt P04062)
Assay: Glucocerebrosidase;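 note: the screen sought inhibitors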
Settings: purified enzyme, resorufin glucoside fluorescence (screen aimed at inhibitors), 20 min
In short: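 Compounds titrated against 0.2 nM normal enzyme, 30 uM resorufin beta-D-glucopyranoside substrate, citrate/phosphate buffer with taurocholate and tween-20, pH 5.9. Reaction ran 20 min at room temperature; fluorescence (Ex 548/Em 600) gave AC50.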
Potency is the fitted concentration of half-maximal effect.

Chain of UniProt P04062 (P04062 whole entry, looked up): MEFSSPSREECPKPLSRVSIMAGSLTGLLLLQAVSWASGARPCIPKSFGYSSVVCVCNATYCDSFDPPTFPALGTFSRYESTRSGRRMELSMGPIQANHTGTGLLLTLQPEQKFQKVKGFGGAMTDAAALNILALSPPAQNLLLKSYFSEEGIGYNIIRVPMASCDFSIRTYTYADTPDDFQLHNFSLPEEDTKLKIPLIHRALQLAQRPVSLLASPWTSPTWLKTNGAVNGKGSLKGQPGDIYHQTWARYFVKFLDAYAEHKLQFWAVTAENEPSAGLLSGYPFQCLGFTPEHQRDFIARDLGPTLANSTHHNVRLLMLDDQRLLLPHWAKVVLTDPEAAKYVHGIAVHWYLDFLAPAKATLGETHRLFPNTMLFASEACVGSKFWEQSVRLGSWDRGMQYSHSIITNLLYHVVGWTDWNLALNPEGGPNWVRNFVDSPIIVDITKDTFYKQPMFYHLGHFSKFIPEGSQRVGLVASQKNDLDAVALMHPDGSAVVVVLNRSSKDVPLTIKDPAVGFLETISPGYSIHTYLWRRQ

Potency, inactive:
CCN(CC)C(=O)CSc1nc2ccccc2c(=O)n1-c1cccc(OC)c1 > 76.9 µM
CC(C)C(C(=O)C=[N+]=[N-])N1C(=O)c2ccccc2C1=O (configuration not stated) > 76.9 µM
COc1ccccc1CNC(=O)c1oc2ccc(S(=O)(=O)N3CCCC3)cc2c1C > 76.9 µM
COCCCNC(=O)Nc1ccc(Br)cc1Cl > 76.9 µM
CC(C)(C)c1nc(CN2CCOCC2)ccc1O > 76.9 µM
O=C(c1ccccc1)c1ccc(CN2C(=O)c3ccccc3C2=O)o1 > 76.9 µM
Cc1cccc(C)c1NC(=O)C(c1ccccc1)N1CCC2(CC1)OCCO2 (configuration not stated) > 76.9 µM
Cc1nn(C)c(C)c1S(=O)(=O)NCc1cccs1 > 76.9 µM
O=C(CSCc1cnn(-c2ccccc2)c1-n1cccc1)NCCN1CCOCC1
Cc1ccc(NC(=O)CS(=O)CC(=O)NC(C)CCc2ccco2)cc1Cl (configuration not stated) > 76.9 µM
N#Cc1c(N)c(C(=O)c2ccccc2)n2c1CCC2 > 76.9 µM
CCOC(=O)N1CCN(C(=O)CSCc2nc(-c3ccccc3C)oc2C)CC1 > 76.9 µM
Cc1ccc(C2C(C#N)=C(N)Oc3nc(-c4ccccc4)[nH]c32)o1 (configuration not stated) > 76.9 µM
Cc1ccc(NC(=O)COC(=O)c2ccc3c(c2)NC(=O)C2CCCN32)cc1 (configuration not stated) > 76.9 µM
CCOC(=O)C1=C(C)SC2=NS(=O)(=O)CCN21 > 76.9 µM
COc1cccc(NC(=O)CCP(C)(=O)O)c1 > 76.9 µM
O=C(O)C1C2C=CC(C2)C1C(=O)N1CCOCC1 (configuration not stated) > 76.9 µM
Cc1nc2cc(CO)ccc2s1 > 76.9 µM
CC1=C/C(=C/N(C)c2ccccc2)C(=O)S1 > 76.9 µM
Cc1ccccc1CN(c1ccc(C(N)=O)cc1)S(C)(=O)=O > 76.9 µM
O=C(c1ccccc1)c1ccc2nc[nH]c2c1 > 76.9 µM
COc1ccc(/C(O)=C2/C(=O)C(=O)N(CCN(C)C)C2c2ccc(F)cc2)cc1Cl (configuration not stated) > 76.9 µM
CCCC12CN(C(=O)c3ccc(OC)cc3)CC(C)(CN(C(=O)c3ccc(OC)cc3)C1)C2=O > 76.9 µM
Cc1c(C(=O)Nc2cccc(Cl)c2)oc2ccc(S(=O)(=O)N3CCC4(CC3)OCCO4)cc12 > 76.9 µM
COc1ccccc1N1CCN(C(=O)Cn2nnc(-c3ccncc3)n2)CC1 > 76.9 µM
O=S(=O)(c1ccc(OCC(O)CN2CCC(Cc3ccccc3)CC2)cc1)N1CCOCC1 (configuration not stated) > 76.9 µM
CCCOC(=O)Cc1c(O)c2ccccc2[nH]c1=O > 76.9 µM
CCn1c(SCC(=O)Nc2ccccc2-c2ccccc2)nnc1-c1ccoc1C > 76.9 µM
Cc1ccc(-c2cc(=O)[nH][nH]2)c(C)c1 > 76.9 µM
CC(C)CC(C(=O)Nc1oc(-c2ccco2)c(-c2ccco2)c1C#N)N1C(=O)c2ccccc2C1=O (configuration not stated) > 76.9 µM
CCn1cc(C(=O)N2CCCC2)c(=O)c2cc(S(=O)(=O)N3CCOCC3)ccc21 > 76.9 µM
Cn1c(=O)cc(OCC(=O)Nc2ccccn2)c2ccccc21 > 76.9 µM
C=CCNS(=O)(=O)c1ccc(OCC(=O)OC)cc1 > 76.9 µM
COc1cc(C2c3c(oc4c(C)cc(C)cc4c3=O)C(=O)N2Cc2cccnc2)cc(OC)c1OC (configuration not stated) > 76.9 µM
COc1ccc(S(=O)(=O)N2CCN(CC(=O)Nc3cccc(F)c3)CC2)cc1 > 76.9 µM
Cc1cc(C)nc(SCc2nnc(SCC(=O)NCc3ccco3)n2-c2ccccc2)n1 > 76.9 µM
CCCCOc1ccc(-c2nnn(CC(=O)NCc3ccco3)n2)cc1 > 76.9 µM
CC(NC(=O)c1ccco1)C(c1cccs1)N1CCN(c2ccccc2F)CC1 (configuration not stated) > 76.9 µM
O=C1OCCC1N1C(=O)c2ccccc2S1(=O)=O (configuration not stated) > 76.9 µM
COc1ccc(-c2nnc(SCC(=O)Nc3cccc(Cl)c3)o2)cc1 > 76.9 µM
N#CCCn1ccc(NC(=O)c2ccc(Cl)cc2)n1 > 76.9 µM
CCOc1cc2[nH]c(=S)n(CCCC(=O)NCc3ccco3)c(=O)c2cc1OCC
CCOC(=O)C(NC(=O)CC(C)C)(Nc1cc(C)on1)C(F)(F)F (configuration not stated) > 76.9 µM
CC1(C)[N+]([O-])=C2C(=[N+]([O-])C1(C)C)c1ccccc1/C2=N\O > 76.9 µM
O=C(C1CCN(Cc2cc(Cl)ccc2O)CC1)N1CCN(Cc2ccccc2)CC1 > 76.9 µM
COc1ccccc1NC(=O)COC(=O)c1ccc(S(=O)(=O)NCc2ccco2)cc1
CN(C(=O)CCN1C(=O)C(C)(C)Nc2ccccc21)c1ccccc1 > 76.9 µM
CCOC(=O)NC1(NC2CCCCC2)Oc2ccccc2O1 > 76.9 µM
CCOC(=O)CSc1nnc(Cc2cc(=O)[nH]c(=O)[nH]2)n1-c1cccc(OC)c1 > 76.9 µM
CCN(CC)C(=O)Cn1cnc2c1c(=O)n(C)c(=O)n2C > 76.9 µM
Cn1nc(C(=O)N2CCN(S(=O)(=O)c3ccccc3)CC2)c2ccccc2c1=O > 76.9 µM
O=C1Cc2ccccc2N1c1ccccc1 > 76.9 µM
CCCCOCCCNC(=O)N[C@H](C(=O)OC)C(C)C > 76.9 µM
Cc1noc(NS(=O)(=O)c2ccc(NC(=O)c3ccc(Br)o3)cc2)c1C > 76.9 µM
O=C(CSc1nnc(-c2cccs2)n1-c1ccccc1)N1CCN(C(=O)c2ccco2)CC1 > 76.9 µM
CCCCCn1ccc(=N)cc1 > 76.9 µM
Cc1cc(-c2nc3ccccc3o2)c2ccccc2n1
Cc1csc(=NC(=O)c2ccccc2)n1Cc1ccco1 > 76.9 µM
O=C(c1ccncc1)N1CCN(C(=O)c2ccco2)CC1 > 76.9 µM
CCn1c(NC(=O)c2ccco2)c(-c2ccccc2Cl)c(=O)c2ccccc21 > 76.9 µM
CCOC(=O)C1=C(N)n2c(s/c(=C/c3ccco3)c2=O)=C(C(=O)OC)C1c1ccco1 (configuration not stated) > 76.9 µM
CN(C)C(=O)CSc1nnc2sc3ccccc3n12 > 76.9 µM
COc1ccc(S(=O)(=O)NC(CC(=O)NCc2ccccc2OC)c2ccco2)cc1 (configuration not stated) > 76.9 µM
O=C(NCC1CCCO1)c1cc(-c2ccco2)nc2ccccc12 (configuration not stated) > 76.9 µM
O=C(Cn1cccc1C(=O)c1ccccc1)NCCN1CCCCCC1 > 76.9 µM
COc1ccc(-c2cc3ccccc3n2CC(O)CN2CCOCC2)cc1 (configuration not stated)
O=C(CSc1nnc(SCC(=O)c2ccco2)s1)c1ccco1 > 76.9 µM
CS(=O)(=O)N(CC(=O)N1CCN(Cc2ccc3c(c2)OCO3)CC1)c1ccc2c(c1)OCO2 > 76.9 µM
COc1ccc(CCn2nnnc2C(c2ccc(Cl)cc2)N2CCN(C)CC2)cc1OC (configuration not stated) > 76.9 µM
CC(=O)Nc1cccc(-c2nc3ccccc3c(=O)o2)c1 > 76.9 µM
CN(C)CC(=O)Nc1cc(C(F)(F)F)ccc1Cl > 76.9 µM
CCOc1ccc(CCNC(=O)c2cccnc2N2CCCC2)cc1OCC > 76.9 µM
CCCC(=O)Nc1ccccc1-c1nnn(CC(=O)Nc2ccc(OCC)cc2)n1 > 76.9 µM
CC(C)CC(NC(=O)C1CCC(C)CC1)C(=O)Nc1cccnc1 (configuration not stated) > 76.9 µM
C=CCC(C#Cc1ccccc1)N(C)C (configuration not stated) > 76.9 µM
COc1cccc(CN(C(=O)c2cc3ccccc3oc2=O)C2CC2)c1 > 76.9 µM
Cc1cccc(-c2nnc(SCC#N)n2-c2cccc(Cl)c2)c1 > 76.9 µM
c1coc(-c2nnc(NC3=NCCC3)o2)c1 > 76.9 µM
COC(=O)c1cc(CSc2nnc(-c3ccccc3)c(-c3ccccc3)n2)oc1C > 76.9 µM
Cc1nc(=O)c(-c2ccccc2)c(C)n1-c1ccccc1O > 76.9 µM
COc1ccccc1CNC(=O)C1CCN(Cc2nc(-c3cccc(Cl)c3)oc2C)CC1
COc1ccc(NC(=O)Cn2nnc(C(N)=O)c2N)c(OC)c1 > 76.9 µM
CC(C)CN(C(=O)COC(=O)c1cc2ccccc2oc1=O)C1CCS(=O)(=O)C1 (configuration not stated) > 76.9 µM
COc1ccc(C)cc1-n1c(-c2ccncc2)n[nH]c1=S > 76.9 µM
CCCNC(=O)Nc1cc(C)on1 > 76.9 µM
Cn1c(SCC(=O)Nc2nc3c(s2)CCCC3)nnc1-c1ccccc1 > 76.9 µM
O=C(NCc1ccc(F)cc1)C1CCN(S(=O)(=O)N2CCC3(CC2)OCCO3)CC1 > 76.9 µM
COc1ccc(S(=O)(=O)c2ccc(OC)c(OC)c2)cc1OC > 76.9 µM
CSc1nc(C)cc(OCC#N)n1 > 76.9 µM
COCC(=O)N(CCc1ccc(OC)c(OC)c1)Cc1nc2ccccc2c(=O)[nH]1 > 76.9 µM
CCCc1cc(=O)n2[nH]c(-c3cc(OC)c(OC)c(OC)c3)nc2n1 > 76.9 µM

Potency, active:
O=C(Nc1ccc(SC(F)F)cc1)c1ccc2nccnc2c1 12.4 µM
